# Reference: PubChem BioAssay AID1346428 (National Center for Advancing Translational Sciences (NCATS), 2018)
# Among all 48,000 compounds or so, about 1,200 (2.5%) were called active. Roughly 2% stayed inconclusive and do not appear here.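 How the source made its calls: active means activation of at least 60% and not above a set upper limit (about 1 call in 100 departs from these limits); inconclusive means activation of 40% to 60%, or above that upper limit; inactive means activation under 40%.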 The list shows a part of the results.
# Molecular target: Probable G-protein coupled receptor 32 (Homo sapiens) (UniProt O75388)
# Assay: qHTS for Agonists of Human Resolvin D1 Receptor DRV1; further: 0% is about no effect
# Conditions: CHO-K1 GPR32 beta-arrestin PathHunter luminescence, 90 min; at 76.9 µM; hits give high values; zero percent set by DMSO-only wells
# Outline: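 Engineered CHO-K1 line co-expressing GPR32-ProLink and EA-beta-arrestin. Compound treatment lasted 90 min at 37 °C. Luminescence was recorded after 1 h with substrate at ambient temperature, relative to DMSO basal wells.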
# Sequence of UniProt O75388 (O75388 whole entry, looked up): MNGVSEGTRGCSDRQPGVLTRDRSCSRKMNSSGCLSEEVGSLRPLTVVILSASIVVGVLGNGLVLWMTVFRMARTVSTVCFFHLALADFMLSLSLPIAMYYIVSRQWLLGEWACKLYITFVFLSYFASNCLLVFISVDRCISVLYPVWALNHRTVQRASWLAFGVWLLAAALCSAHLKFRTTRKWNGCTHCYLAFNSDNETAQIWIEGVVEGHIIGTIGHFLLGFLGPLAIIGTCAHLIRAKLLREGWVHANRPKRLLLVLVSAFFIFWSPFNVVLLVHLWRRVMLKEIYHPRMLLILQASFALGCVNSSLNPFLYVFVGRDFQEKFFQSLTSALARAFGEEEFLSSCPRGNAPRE
row,Compound,activation
1,CCOC(=O)N1CCc2c(sc3c2c(=O)n(-c2ccc(CC)cc2)c(=O)n3C)C1,inactive: -6.72%
2,CCc1ccccc1NC(=O)Cn1c(=O)ccc2cc(S(=O)(=O)N3CCCC3)ccc21,inactive: 14.1%
3,CCCSc1ncc(Cl)c(C(=O)N(Cc2ccc(Cl)cc2)Cc2ccco2)n1,inactive: -29%
4,Cc1ccccc1OCC(=O)N1CCC(c2nc3ccccc3s2)CC1,inactive: 31.7%
5,COc1ccc(OCc2ccc(-c3nc(C#N)c(N4CCCCC4)o3)o2)cc1,inactive: -19.3%
6,COc1ccc(-n2c(=O)c3sc4ccccc4c3n(Cc3ccccc3C)c2=O)cc1OC,inactive: -11.6%
7,Cc1ccc(NC(=O)Cn2nc(N3CCN(c4ccccc4)CC3)ccc2=O)cc1F,inactive: -9.65%
8,COc1ccc(C(=O)c2c(N)c(C(=O)Nc3cccc(OC)c3)c3ccccn23)cc1,inactive: 37.9%
9,Cc1c(C(=O)N(C)C)sc2c1c(=O)n(-c1ccc(Cl)cc1)c(=O)n2CC(=O)C(C)(C)C,inactive: 11.1%
10,CCC(C(=O)O)n1ccc2cc(S(=O)(=O)N3CCCCC3)ccc21 (stereo not drawn),inactive: -8.24%
11,COc1ccc(S(=O)(=O)N2Cc3ccccc3CC2C(=O)Nc2ccc(C)cc2C)cc1OC (stereo not drawn),inactive: 10.6%
12,CCOC(=O)c1c(C)[nH]c(C)c1S(=O)(=O)N1CCC(C(=O)NCc2cccc(OC)c2)CC1,inactive: 7.98%
13,CCC1CCCCN1S(=O)(=O)c1cc2c3c(c1)CC(=O)N3CCC2 (stereo not drawn),inactive: -33.4%
14,COC(=O)c1sc2cccc(F)c2c1S(=O)(=O)N1CCN(c2cccc(C)c2)C(C)C1 (stereo not drawn),inactive: -6.8%
15,COc1ccc(CCNc2ncnc3c2nnn3C)cc1,inactive: 30.9%
16,Cc1nc2ccc(S(=O)(=O)N(CC(=O)Nc3ccc(F)cc3)Cc3ccccc3)cc2s1,inactive: -9.44%
17,CC1CCc2c(sc(NC(=O)CCCOc3ccccc3)c2C(N)=O)C1 (stereo not drawn),active: 95.9%
18,CCOc1ccc(-n2nc3ccc(NC(=O)Cc4ccccc4)cc3n2)cc1,inactive: 47.3%
19,CCCOC(=O)c1c(NC(=O)c2cc3ccccc3c(=O)o2)sc2c1CCC(C)C2 (stereo not drawn),inactive: -4.25%
20,CC(C)(C)OC(=O)N1CCC(c2c(C(=O)N3CCN(C(=O)c4ccco4)CC3)cnn2-c2ccc(F)cc2F)CC1,inactive: -3.71%
21,Cc1cc(-c2ccc(C)c(S(=O)(=O)N3CCOc4ccc(Cl)cc43)c2)on1,inactive: -1.75%
22,CCc1ccccc1-n1c(N)c(C(=O)OC)c2nc3ccccc3nc21,inactive: -0.12%
23,Cc1ccc(-c2nnc3c4ccccc4c(C)nn23)cc1NC(=O)c1ccccc1,inactive: 8.4%
24,COC(=O)c1ccc(Cn2nnc3c(=O)[nH]c(C4CCCN(S(=O)(=O)c5ccccc5Cl)C4)nc32)cc1 (stereo not drawn),inactive: -9.53%
25,COc1ccc(-c2cn3c(C)c(C(=O)Nc4cc(C)cc(C)c4)sc3n2)cc1,inactive: -28.8%
26,CCOC(=O)c1cnc2c(Cl)cc(Cl)cc2c1Nc1ccccc1OC,inactive: 13.8%
27,COc1cc(NC(=O)c2nnn(CC(=O)Nc3cc(C)ccc3C)c2N)cc(OC)c1,inactive: -9.92%

row,Compound,activation
1,O=C(Nc1ccc(OC(F)(F)F)cc1)c1noc2c1CCCC2,inactive: -14.1%
2,CCOC(=O)CCc1c(C)nc2cc(-c3cc(OC)cc(OC)c3)[nH]n2c1=O,inactive: 2.49%
3,CCOc1cc(C(=O)Nc2ccc3c(c2)n(C)c(=O)c(=O)n3C)cc(OCC)c1OCC,inactive: -84.7%
4,CCOc1ccc(-n2c(SCC(=O)Nc3ccc(CC)cc3)nc3c(oc4ccccc43)c2=O)cc1,inactive: -16.6%
5,COc1cc(NC(=O)c2cc(-c3cccc(OC)c3)n[nH]2)cc(OC)c1,active: 81.5%
6,COC(=O)c1ccc(NC(=O)CC2C(=O)N(c3cccc(OC)c3)C(=O)N2C(C)C)cc1 (stereo not drawn),inactive: -9.3%
7,COc1ccccc1CNC(=O)c1cc2cc3ccc(Cl)cc3nc2o1,inactive: 4.2%
8,COc1ccc(CCNC(=O)CCc2c(C)nc3c(c(C)nn3-c3ccc(C)c(C)c3)c2C)cc1OC,inactive: 25.3%
9,C[C@@]1(C2CCCC2)Cc2cc(OCC(=O)O)c(Cl)c(Cl)c2C1=O,inactive: -17.2%
10,CCOc1ccccc1NC(=O)Cn1c(=O)n(CCC(=O)NCc2ccc3c(c2)OCO3)c(=O)c2ccccc21,inactive: -18.1%
11,COc1cc(OC)c(NC(=O)c2csc3c2CCC(C)C3)cc1Cl (stereo not drawn),inactive: -7.53%
12,CCc1ccccc1N1CC(c2nc3ccccc3n2CCCOc2ccc(Cl)cc2)CC1=O (stereo not drawn),inactive: -7.11%
13,Cc1ccc(NC(=O)CCCn2c(=O)c3cccn3c3ccccc32)c(Cl)c1,inactive: -19.4%
14,Cc1c(CNC2CCCCC2)c(C(=O)O)c(C)n1Cc1c(F)cccc1Cl,inactive: -5.55%
15,COc1ccccc1N1CCN(c2ccc(NC(=O)c3ccc(C)cc3)cc2C(=O)O)CC1,inactive: -0.581%
16,Nc1nnc(SCC(=O)Nc2ccc(Cl)cc2)s1,inactive: 16.2%
17,O=C(CCOc1ccccc1)N(Cc1cccnc1)c1nc2c(F)cc(F)cc2s1,inactive: -19.2%
18,COc1ccccc1OCCSc1nc(-c2ccc(C(C)(C)C)cc2)nc2cc(=O)[nH]n12,active: 65.5%
19,Cc1ccc(CNC(=O)Cn2cc(S(=O)(=O)Cc3ccccc3Cl)c3ccccc32)cc1,inactive: -11.8%
20,CCOc1ccc(NC(=O)C(CC)n2c(=O)c(-c3ccccc3NC(C)=O)nc3ccccc32)cc1 (stereo not drawn),inactive: -10.4%
21,O=C(CSC1=Nc2ccccc2C2=NC(CCC(=O)NC3CCCCC3)C(=O)N12)Nc1cccc(C(F)(F)F)c1 (stereo not drawn),inactive: -0.573%
22,Cc1cc(Cl)ccc1NC(=O)c1cccc(NC(=O)N2CCSc3ncccc32)c1,inactive: 17.5%
23,COc1ccc(C(=O)Nc2cc3c(cc2C(=O)c2ccccc2Cl)OCCO3)cc1,inactive: -20.7%
24,COc1cc(OC)c(NC(=O)N2CCSc3ccccc32)cc1Cl,inactive: -24.9%
25,COc1ccc(CNC(=O)c2cnc3sc(N4CCOCC4)nn3c2=O)cc1,inactive: 10.2%
26,CCOC(=O)c1c(NC(=O)CCCOc2ccccc2C)sc2c1CCC(C)C2 (stereo not drawn),inactive: 7.2%
